Consider 55 compounds from publication PMC4336329 (PLoS ONE, 2015).

SMILES strings stand for the structures. About 2,200 (0.71%) of roughly 310,000 compounds showed an effect of 50% or more. The effect is printed as a negative number. This is one part of the list.

The assay deals with human ether-à-go-go-related gene (hERG) potassium channel (human, UniProt Q12809). Description: primary screen, population patch clamp on CHO cells stably expressing hERG.
human ether-à-go-go-related gene (hERG) potassium channel, sequence (Q12809 whole entry, looked up): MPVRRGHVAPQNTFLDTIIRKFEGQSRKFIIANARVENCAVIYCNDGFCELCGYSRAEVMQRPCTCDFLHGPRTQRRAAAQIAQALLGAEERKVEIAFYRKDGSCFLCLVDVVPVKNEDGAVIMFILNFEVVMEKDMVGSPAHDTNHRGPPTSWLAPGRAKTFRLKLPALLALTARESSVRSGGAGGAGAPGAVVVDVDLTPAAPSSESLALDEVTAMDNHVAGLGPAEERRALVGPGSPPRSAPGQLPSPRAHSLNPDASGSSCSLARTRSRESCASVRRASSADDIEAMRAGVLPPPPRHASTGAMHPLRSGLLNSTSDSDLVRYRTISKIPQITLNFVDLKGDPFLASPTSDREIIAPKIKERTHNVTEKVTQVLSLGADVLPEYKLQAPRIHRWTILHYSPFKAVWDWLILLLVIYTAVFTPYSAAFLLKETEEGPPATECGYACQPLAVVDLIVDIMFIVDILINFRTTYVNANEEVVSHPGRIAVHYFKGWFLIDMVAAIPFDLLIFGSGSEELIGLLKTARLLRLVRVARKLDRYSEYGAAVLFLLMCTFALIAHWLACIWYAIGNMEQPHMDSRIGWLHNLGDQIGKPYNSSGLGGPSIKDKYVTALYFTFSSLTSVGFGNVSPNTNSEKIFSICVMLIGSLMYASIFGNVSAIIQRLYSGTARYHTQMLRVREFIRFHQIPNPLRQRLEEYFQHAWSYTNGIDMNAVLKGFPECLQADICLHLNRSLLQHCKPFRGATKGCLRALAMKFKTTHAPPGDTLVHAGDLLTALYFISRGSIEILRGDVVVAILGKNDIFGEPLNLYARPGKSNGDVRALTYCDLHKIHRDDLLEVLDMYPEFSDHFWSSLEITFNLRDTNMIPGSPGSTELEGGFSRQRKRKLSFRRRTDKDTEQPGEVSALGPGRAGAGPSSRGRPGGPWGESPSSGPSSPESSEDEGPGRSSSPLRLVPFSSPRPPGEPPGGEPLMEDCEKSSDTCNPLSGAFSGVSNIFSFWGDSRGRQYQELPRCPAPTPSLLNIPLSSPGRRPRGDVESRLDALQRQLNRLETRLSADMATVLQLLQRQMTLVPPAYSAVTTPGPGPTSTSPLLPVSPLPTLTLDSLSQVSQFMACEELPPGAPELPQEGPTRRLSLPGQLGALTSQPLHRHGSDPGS
On to `CCC(C)Oc1ccc(C(=O)Nc2ccc(CN3CCOCC3)cc2)cc1` (stereo not shown), for which the “hERG current change (%, negative = inhibition) at 1uM” value was determined as 5.88%.

Take `Cc1nnc2ccc(-c3ccc(NC(=O)c4ccco4)cc3)nn12`: the “hERG current change (%, negative = inhibition) at 1uM” value is recorded as -4.49%.

For the compound `Nc1cc(Cl)c(N)cc1Cl`, the “hERG current change (%, negative = inhibition) at 1uM” value came out at 4.7%.

In the case of `CSc1nsc(SCC(=O)Nc2cc(C(=O)O)ccc2C)n1`, the “hERG current change (%, negative = inhibition) at 1uM” value was found to be 6.07%.

Regarding `CCOC(=O)N1CCN(CC(=O)Nc2ccc(C)cc2)CC1`, the “hERG current change (%, negative = inhibition) at 1uM” value turned out to be 6.17%.

On to `Cc1ccc(C2CC(c3cccc(Br)c3)n3nc(N)nc3N2)cc1` (stereo not shown), for which the “hERG current change (%, negative = inhibition) at 1uM” value is on record as 11.2%.

Consider `Cc1ccc(S(=O)(=O)N2CCN(C(=O)CN3CCc4ccccc4C3)CC2)cc1.O=C(O)C(=O)O`, for which the “hERG current change (%, negative = inhibition) at 1uM” value is -3.74%.

Regarding `O=C(COC(=O)CNC(=O)c1ccc(Cl)cc1)Nc1cccc(S(=O)(=O)N2CCCC2)c1`, the “hERG current change (%, negative = inhibition) at 1uM” value is reported as -5.32%.

`O=C(CCc1nc2ccccc2s1)OCc1ccccc1`: the “hERG current change (%, negative = inhibition) at 1uM” value is -8.84%.

For `O=C(c1ccc(NS(=O)(=O)c2ccc3[nH]c(=O)[nH]c3c2)cc1)N1CCN(c2ccccc2O)CC1`, the “hERG current change (%, negative = inhibition) at 1uM” value came to 5.74%.

As to `COc1ccc([C@@H]2CC=C(C(=O)O)[C@H](c3cccc(Cl)c3)N2S(=O)(=O)c2ccc(C)cc2)cc1OC`, the “hERG current change (%, negative = inhibition) at 1uM” value is given as 16.1%.

In the case of `CC(=O)c1ccccc1C(=O)N1CCCC(N2CCN(Cc3ccc4c(c3)OCO4)CC2)C1` (stereo not shown), the “hERG current change (%, negative = inhibition) at 1uM” value came out at 6.05%.

Take `COc1ccc(-c2[nH]ncc2CN2CCCO2)c(F)c1`: the “hERG current change (%, negative = inhibition) at 1uM” value was found to be 10.3%.

Turning to `COc1ccc(Nc2nc(NCc3ccco3)nc(N/N=C/c3ccc(O)cc3)n2)cc1`, the “hERG current change (%, negative = inhibition) at 1uM” value is -2.89%.

As to `O=C(CC1S/C(=N/N=C/c2c[nH]c3ccccc23)NC1=O)Nc1ccccc1` (stereo not shown), the “hERG current change (%, negative = inhibition) at 1uM” value is 5.08%.

In the case of `CCOC(=O)N1CCN(c2c(N3CC=C(c4ccccc4)CC3)c(=O)c2=O)CC1`, the “hERG current change (%, negative = inhibition) at 1uM” value was -6.68%.

Consider `CN1CCN(C(=O)NC2CCCCC2)CC1.O=C(O)C(=O)O`, for which the “hERG current change (%, negative = inhibition) at 1uM” value turned out to be 6.34%.

Consider `O=C(c1ccccc1NS(=O)(=O)c1ccc(Cl)cc1)N1CCc2ccccc21`, for which the “hERG current change (%, negative = inhibition) at 1uM” value was found to be 12.2%.

`O=C(Nc1cc(C(F)(F)F)ccc1N1CCOCC1)c1n[nH]c(=O)c2ccccc12`: the “hERG current change (%, negative = inhibition) at 1uM” value came out at 1.77%.

Turning to `Cc1ccc(-c2nnc(SCC(=O)Nc3sc(C)c(C)c3C#N)n2C)cc1`, the “hERG current change (%, negative = inhibition) at 1uM” value is given as -11.9%.

As for `Cc1ccccc1NC(=O)CCS(=O)(=O)c1ccc(Br)cc1`, the “hERG current change (%, negative = inhibition) at 1uM” value came out at 10.3%.

Turning to `NC(=O)C1CCN(C(=O)/C(=C/c2ccco2)NC(=O)c2ccccc2)CC1`, the “hERG current change (%, negative = inhibition) at 1uM” value was 6.13%.

In the case of `Cc1cc(C(=O)Nc2cccnc2Cl)on1`, the “hERG current change (%, negative = inhibition) at 1uM” value worked out at 2.31%.

As for `O=C(NCc1ccc2c(c1)OCO2)C1CCN(S(=O)(=O)c2ccc(Br)s2)CC1`, the “hERG current change (%, negative = inhibition) at 1uM” value turned out to be 9.97%.

Consider `COc1ccccc1-n1nnnc1SCC(=O)N(CC(C)C)C1CCS(=O)(=O)C1` (stereo not shown), for which the “hERG current change (%, negative = inhibition) at 1uM” value is recorded as 0.673%.

Regarding `Cc1cc(NC(=O)CN2C(=O)NC(CC(C)C)C2=O)ccc1Br` (stereo not shown), the “hERG current change (%, negative = inhibition) at 1uM” value turned out to be 4.2%.

Take `c1ccc2c3c([nH]c2c1)CNCC3`: the “hERG current change (%, negative = inhibition) at 1uM” value was 15.7%.

On to `Cc1cccc(C)c1NC(=O)CCCSc1nnc(-c2ccco2)n1-c1ccccc1`, for which the “hERG current change (%, negative = inhibition) at 1uM” value is -0.258%.

`O=C(N/N=C1\CCSC1)c1cc(Cl)ccc1O`: the “hERG current change (%, negative = inhibition) at 1uM” value is reported as 7.09%.

Consider `CCOc1ccc(CN2CCN(C(=O)c3cccc(F)c3)CC2)cc1.O=C(O)C(=O)O`, for which the “hERG current change (%, negative = inhibition) at 1uM” value is given as -30.6%.

Take `CC(C)[C@H](NC(=O)NCc1ccc(F)cc1)C(=O)O`: the “hERG current change (%, negative = inhibition) at 1uM” value amounted to 13.6%.

On to `Cn1nc(C(=O)Nc2ccc(Br)cc2)cc1C(=O)Nc1ccc(Br)cc1`, for which the “hERG current change (%, negative = inhibition) at 1uM” value is recorded as 4.86%.

`Br.FC(F)Oc1ccc(-c2csc(NNC3=NCCCCC3)n2)cc1`: the “hERG current change (%, negative = inhibition) at 1uM” value was -10.3%.

Turning to `COc1ccc(CC(=O)Nc2ccc(S(=O)(=O)Nc3onc(C)c3C)cc2)cc1OC`, the “hERG current change (%, negative = inhibition) at 1uM” value was 15.3%.

`Cc1ccc(SCC(=O)OCC(=O)NCCc2ccccc2)cc1`: the “hERG current change (%, negative = inhibition) at 1uM” value amounted to 13.3%.

In the case of `CCCc1nnc(SCC(=O)Nc2ccccc2Cl)n1CC1CCCO1` (stereo not shown), the “hERG current change (%, negative = inhibition) at 1uM” value was found to be 9.7%.

Regarding `CC1C(=O)N(Cc2ccccc2)c2ccccc2N1C(=O)c1ccccc1` (stereo not shown), the “hERG current change (%, negative = inhibition) at 1uM” value is recorded as 9.51%.

For the compound `Cc1ccc(NC(=O)COc2ccccc2)c(NC(=O)c2ccccc2C)c1`, the “hERG current change (%, negative = inhibition) at 1uM” value is on record as 5.7%.

Regarding `CCOc1ccc(-c2csc3nc[nH]c(=O)c23)cc1`, the “hERG current change (%, negative = inhibition) at 1uM” value turned out to be 13.9%.

Regarding `Cc1nc(-c2ccc(F)cc2)c(CC(=O)N(C)CC(=O)Nc2ccc(Br)cc2C)s1`, the “hERG current change (%, negative = inhibition) at 1uM” value is reported as 18.1%.

`Cn1c(SCc2cccc(Br)c2)nc2ccccc2c1=O`: the “hERG current change (%, negative = inhibition) at 1uM” value is given as 15.5%.

For `Cl.c1cc2c(cc1C1CCCCC1)c1c3n2CCCNC3CCC1` (stereo not shown), the “hERG current change (%, negative = inhibition) at 1uM” value was -5.39%.

As for `O=c1oc2ccccc2c(O)c1/C=N/c1ccccn1`, the “hERG current change (%, negative = inhibition) at 1uM” value is on record as 12.8%.

Regarding `COc1ccc(CNC(=O)CSCc2c(F)cccc2Cl)cc1`, the “hERG current change (%, negative = inhibition) at 1uM” value is given as -1.01%.

With `CCN(CC)c1ccc(NC(=O)COC(=O)c2ccc3ccccc3n2)cc1`, the “hERG current change (%, negative = inhibition) at 1uM” value is given as -1.19%.

Consider `C=CC(COCc1ccccc1)N(C(=O)OC(C)(C)C)S(=O)(=O)c1ccccc1Br` (stereo not shown), for which the “hERG current change (%, negative = inhibition) at 1uM” value turned out to be 1.36%.

Regarding `C=Cc1cccc(NC(=O)COc2ccccc2)c1`, the “hERG current change (%, negative = inhibition) at 1uM” value is on record as 12.7%.

For `C=CCOC(=O)C1=C[C@@H](c2ccc(Br)cc2)[C@H](CCCO)[C@@H](OCC)O1`, the “hERG current change (%, negative = inhibition) at 1uM” value stood at 15.6%.

Take `O=C(OC1CCCCC1=O)c1cccc(S(=O)(=O)N2CCCCC2)c1` (stereo not shown): the “hERG current change (%, negative = inhibition) at 1uM” value was determined as 10.5%.

Take `CC(C(=O)Nc1ccc2c(c1)OCCO2)N(C)Cc1c(F)cccc1Cl` (stereo not shown): the “hERG current change (%, negative = inhibition) at 1uM” value came to 11.2%.

For `Cc1ccc(CNC(=O)Cc2ccc(-n3c(=O)[nH]c4ccsc4c3=O)cc2)cc1`, the “hERG current change (%, negative = inhibition) at 1uM” value was 6.06%.

On to `CCOC(=O)N1CCC(NC(=O)CCC(=O)N2CCOc3ccc(C)cc32)CC1`, for which the “hERG current change (%, negative = inhibition) at 1uM” value is given as 7.27%.

On to `COc1cccc(CNC(=O)CCS(=O)(=O)c2cccs2)c1`, for which the “hERG current change (%, negative = inhibition) at 1uM” value was -12%.

Regarding `COC(=O)C1CCN(C(=O)c2cc3c(=O)n4cccc(C)c4nc3n2Cc2ccccc2)CC1`, the “hERG current change (%, negative = inhibition) at 1uM” value came to 13.5%.

On to `CCn1c(NC(=O)c2ccc(COc3ccc(C)cc3[N+](=O)[O-])o2)nc2ccccc21`, for which the “hERG current change (%, negative = inhibition) at 1uM” value is -1.09%.
